Data taken from PubChem BioAssay AID686978 (National Center for Advancing Translational Sciences (NCATS), 2013).
“And” between values parts separate entries of the source, which are not always exact repeats. Identical values can stand only once. Hit rate of the full screen: of about 420,000 compounds, about 64,000 (15%) were called active. The inconclusive results got no clear call from the source; some entries with a clear call stand among them for comparison. The call rests on the fitted dose curve; in most records, active means well fitted inhibition curve with a large enough effect; inconclusive means small, poorly fitted or top-dose-only effect; inactive means flat fitted curve, though single readings scatter. Potencies of inconclusive entries are doubtful fits and often do not repeat.

assay: qHTS for Inhibitors of human tyrosyl-DNA phosphodiesterase 1 (TDP1): qHTS in cells in absence of CPT; conditions: DT40 Tdp1-/- hTDP1 cells, no CPT, ATP luminescence, 48 h; activity change, negative = growth inhibition: at 46.2 µM (top of the series) unless noted; further: nearly all actives have a fitted effect of over 55% in size
Method in brief: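 A cellular qHTS used chicken DT40 cells lacking endogenous Tdp1 but carrying stably transfected human TDP1. Compounds were applied without camptothecin, and cell growth kinetics were judged by ATP-dependent luminescence after ≥48 hr.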
On the % scale 0 is the no-effect control and ±100 the full control effect; potency means the concentration at half of the fitted maximal effect; tags describe the fitted curve by direction and shape.

SMILES	Potency	activity change, negative = growth inhibition
Cc1ccc(NC(=O)C2CCCN(C(=O)c3ccc(Cl)cc3)C2)c(C)c1 (stereo unspecified)	inactive	
COc1ccc(CCNC(=O)c2ccc3c(c2)N(Cc2cccc(C)c2)C(=O)c2ccccc2S3(=O)=O)cc1OC	active: 11.6 µM	
CC(C)C[C@H](N)c1cn([C@@H](Cc2ccc(O)cc2)C(=O)N2CCNCC2)nn1	inactive	
CCOc1ccc(CCN2C(=S)N([C@@H](CC(C)C)CN3CCCC3CN3C(=S)NC[C@@H]3CC(C)C)C[C@@H]2Cc2ccccc2)cc1 (stereo partly specified)	active: 18.4 µM	
O=c1cnc2cnc(Nc3ccccc3)nc2n1C1CC1	inconclusive: 29.1 µM [inhibitor, single point]	
Cc1ccc(C)c(OCCC(=O)OC(C)C(=O)Nc2c(C)n(C)n(-c3ccccc3)c2=O)c1 (stereo unspecified)	inactive	
CCc1ccc(-n2nnc(-c3nc(-c4ccccc4)no3)c2C)cc1	inactive	
COc1ccc2oc(C(=O)OC(C)C(=O)NC3(C#N)CCCCC3)c(C)c2c1 (stereo unspecified)	inconclusive: 25.9 µM [inhibitor, single point]	
COc1cc2oc(-c3ccc(O)cc3)cc(=O)c2c(OC)c1O	inconclusive: 10.3 µM [inhibitor, partial curve]	
Cc1ccc(Nc2c3c(nc4nncn24)CCC3)cc1	inactive	
COc1ccccc1Nc1c2c(nc3ccc(NC(=O)/C=C/c4cccc(OC)c4OC)cc13)CCCC2	active: 4.11 µM	
CC1S/C(=N/N=C/c2cccc([N+](=O)[O-])c2)NC1=O (stereo unspecified)	inconclusive: 29.1 µM [inhibitor, single point]	
O=C(NCCc1ccccc1)C1CCC(CNc2c(N3CCCCC3)c(=O)c2=O)CC1 (stereo unspecified)	inconclusive: 10.3 µM [inhibitor, single point]	
COc1cc(OC)c(NC(c2nnc(-c3ccccc3)o2)c2ccc(F)cc2Cl)cc1Cl (stereo unspecified)	active: 18.4 µM	
OC(CN1C2=NCCCN2c2ccccc21)c1ccc(Br)cc1 (stereo unspecified)	inconclusive: 14.6 µM [inhibitor, partial curve]	
CSc1nc(N2CCN(C)CC2)c2c(c1C#N)CC(C)(C)OC2	inactive	
COc1ccccc1Nc1nc(-c2cccnc2)cs1	inconclusive: 25.9 µM [inhibitor, partial curve]	
O=C(Nc1ccccc1)Nc1ccccc1Br	inconclusive: 29.1 µM [inhibitor, single point]	
CCOc1ccccc1-c1nc(-c2ccc(-c3ccccc3)nc2OCC)no1	inconclusive: 18.4 µM [inhibitor, single point]	
CCN(Cc1ccccc1)C(c1ccc(C)cc1)c1nnnn1C(C)(C)C (stereo unspecified)	inconclusive: 29.1 µM [inhibitor, single point]	
CN(C)S(=O)(=O)c1ccc(S(=O)(=O)N2CCCC(C(=O)NC3CCCC3)C2)cc1 (stereo unspecified)	active: 2.91 µM	
CCn1cc(S(=O)(=O)c2cc(C)cc(C)c2)c(=O)c2cc(F)c(N3CCOCC3)cc21	inactive	
O=C(CCCN1CC=C(n2c(=O)[nH]c3ccccc32)CC1)c1ccc(F)cc1	inconclusive: 29.1 µM [inhibitor, single point] and inconclusive: 18.8 µM [inhibitor, partial curve, poor fit]	

SMILES	Potency	activity change, negative = growth inhibition
COc1cccc(C(=O)Nc2cccc(OCC(=O)c3ccccc3)c2)c1	inconclusive: 29.1 µM [inhibitor, single point]	
CCN(CC)C(=O)c1ccc(COc2ccccc2Br)o1	inconclusive: 1.64 µM [inhibitor, partial curve]	
Cc1cc(C)cc(-n2cnc3cc(C(=O)NCCc4ccccc4)ccc32)c1	inconclusive: 29.1 µM [inhibitor, single point]	
COc1ccc(NC(=O)CSc2nnnn2C2CCCC2)cc1S(=O)(=O)N1CCOCC1	inactive	
CCC1(c2ccc(F)cc2)NC(=O)N(CC(=O)NCc2ccccc2Cl)C1=O (stereo unspecified)	inconclusive: 16.4 µM [inhibitor, partial curve]	
CCN1CCN(c2nc3c(c(=O)[nH]c(=O)n3C)n2Cc2ccccc2)CC1	inactive	
CCOC(=O)C1CCCN(C(=O)c2ccc(C)c(F)c2)CC1 (stereo unspecified)	inactive	
COc1ccc(NC(=O)C2Cc3c(-c4ccc(Cl)cc4)ccnc3O2)cc1OC (stereo unspecified)	active: 18.4 µM	
O=C(NCc1ccccc1Cl)c1csc([C@@H]2C[C@H](O)[C@@H](CO)O2)n1	inactive	
O=S(=O)(NCc1ccco1)c1cnc(Cl)c(Br)c1	inactive	
CCN(C(=O)Cn1c(C(=O)OC)cc2oc3ccccc3c21)c1cccc(C)c1	active: 18.4 µM	
COc1cc(NC(=O)Cn2c(SCc3ccc(F)cc3)nc3cccnc32)cc(OC)c1	inactive	
Clc1ccc(CO/N=C2\CCCc3nonc32)cc1	inconclusive: 20.6 µM [inhibitor, partial curve]	
Cc1ccc(S(=O)(=O)CCC(=O)Nc2nc3c(s2)CCCC3)cc1	active: 29.1 µM	
CS(=O)(=O)NCCNc1ccc(Cl)cc1[N+](=O)[O-]		inconclusive: -33.3% [inhibitor]
COc1ccc(OCC(=O)Nc2nc3c(s2)CCCC3)cc1	inconclusive: 29.1 µM [inhibitor, single point]	
CCOC(=O)C1CCN(C(=O)c2oc3ccc(S(=O)(=O)N4CCCCCC4)cc3c2C)CC1	inconclusive: 20.6 µM [inhibitor, single point]	
Cc1onc(-c2ccccc2Cl)c1C(=O)OCC(=O)c1c(N)n(C)c(=O)n(C)c1=O	active: 7.31 µM	
Cc1ccc(CCNC(=O)CCc2cn(Cc3ccccc3C)c3ccccc23)cc1	active: 16.4 µM	
Cc1cc(C)cc(C(=O)N2CC(C)SC2=Nc2cccc(S(=O)(=O)N(C)C)c2)c1 (stereo unspecified)	inconclusive: 25.9 µM [inhibitor, single point]	
CCN(C(=O)CSc1nnc(-c2ccco2)n1CC)c1c(N)n(Cc2ccccc2)c(=O)[nH]c1=O	inactive	
Cc1ccnc(NS(=O)(=O)c2ccc(NC(=O)c3cncc(Br)c3)cc2)n1	inconclusive: 29.1 µM [inhibitor, single point]	
CCOC(=O)c1c(Oc2ccc(C(=O)OC)cc2)nnc(-c2ccccc2)c1-c1ccccc1	active: 23.1 µM	
